Screen size: about 340,000 compounds; about 12,000 (3.5%) were called active. Inconclusive means that the source gave no clear call. Such entries were picked first, then a sample of the others. The call rests on the fitted dose curve; in most records, active means well fitted inhibition curve with a large enough effect; inconclusive means small, poorly fitted or top-dose-only effect, or another doubt; inactive means no such curve, though single readings can be large or run the other way. No potency is given beside an inconclusive call; the fits are too rough.
assay: qHTS Assay for Inhibitors of Hepatitis C Virus (HCV); details: Huh7.5.1 HCVcc-Cre (HCVcc is cell-culture hepatitis C virus) infection, luciferase reporter, 44 h; series mostly up to 41.8 µM
Method in brief: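 After 44 h co-culture of compound, cells and HCVcc-Cre (~0.5 moi), substrate is added for 15 min at room temperature and luciferase measured over 15 sec. Cells were seeded at 1,000/well and pre-cultured 4 h.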
Potency means the concentration at half of the fitted maximal effect; tags describe the fitted curve by direction and shape.

| SMILES | Potency |
| --- | --- |
| N#Cc1c(NC(=S)NC(=O)C2CCCC2)sc2c1CCCCC2 | inconclusive [inhibitor, single point] |
| COc1ccc(S(=O)(=O)NCc2ccc(C(=O)N3CCN(Cc4ccccc4)CC3)cc2)cc1 | active: 31.6 µM |
| Cc1cccc(C)c1NC(=O)COC(=O)c1cc[n+]([O-])cc1 | inactive |
| Cc1ccc(S(=O)(=O)N2CCN(c3nc(CN4CCCC4)nc4sc(C)c(C)c34)CC2)cc1 | inconclusive [inhibitor, partial curve] |
| CC(O)c1c(OCc2ccccc2)ncnc1OCc1ccccc1 (centres undefined) | inconclusive [inhibitor, partial curve] |
| CN(C)c1ccc(NC(=O)C2CCCN(S(=O)(=O)c3ccccc3)C2)cc1 (centres undefined) | inconclusive [inhibitor, partial curve] |
| CCCCn1ccnc1C(=O)c1cc(S(=O)(=O)N2CCOCC2)ccc1C | active: 11.2 µM |
| Cc1ccc2c(c1)cc(CN(Cc1ccco1)C(=O)N1CCOCC1)c1nnnn12 | inconclusive [inhibitor, single point] |
| O=C(O)C1C2C=CC(O2)C1C(=O)Nc1cccc(C(F)(F)F)c1 (centres undefined) | inactive |
| O=C(Nc1cccnc1)Nc1ccc(Br)cc1Cl | active: 11.2 µM |
| CCN1CCCC1CNC(=O)CS(=O)(=O)Cc1nc(-c2ccccc2C)oc1C (centres undefined) | inconclusive [inhibitor, single point] |
| CCC(C)NCCOCCSc1ccc(Cl)cc1 (centres undefined) | inconclusive [inhibitor, single point] |
| O=C(CCl)NCCCCCCCCCNC(=O)CCl | inconclusive [inhibitor, single point] |
| COc1cc(CN2CCCC(CO)(Cc3cccc(Cl)c3)C2)cc2c1OCO2 (centres undefined) | inactive |
| Cc1nnc(SCC(=O)NNC(=O)c2ccc(F)cc2)n1Cc1ccccc1 | inactive |
| CC1=C(C)CC(C(=O)Nc2ccc(C(=O)N3CCOCC3)cc2)C(C(=O)O)C1 (centres undefined) | inactive |
| Cc1cc(NC(=O)Nc2cc(F)ccc2F)no1 | inactive |
| CCOc1ccc(N(C)S(=O)(=O)c2ccc(C)c(C(=O)NCc3cccs3)c2)cc1 | active: 14.1 µM |
| CC1CCCCN1S(=O)(=O)c1ccc(S(=O)(=O)NCCc2ccncc2)cc1 (centres undefined) | inconclusive [inhibitor, single point] |
| CCCn1nnc(NC(=O)c2ccc(OCC)c(Cl)c2)n1 | inconclusive [inhibitor, partial curve] |
| COc1cc(-c2nnc(SCC(=O)c3ccc(C)cc3)o2)cc(OC)c1OC | inconclusive [inhibitor, partial curve] |
| CCOc1ccccc1N1CCN(Cc2cnc(-c3ccccc3)[nH]2)CC1 | inconclusive [inhibitor, full curve, poor fit] |

| SMILES | Potency |
| --- | --- |
| COc1ccc(CC(C#N)(CO)c2nc3ccccc3[nH]2)cc1 (centres undefined) | inactive |
| COc1ccc(CNC(=O)N2CCN(S(=O)(=O)c3ccc(C)cc3C)CC2)cc1 | inconclusive [inhibitor, full curve] |
| Cc1cc2nc(CCN(C(=S)NCC(C)C)C3CCCC3)[nH]c2cc1C | inconclusive [inhibitor, full curve] |
| CCn1c2ccccc2c2cc(NC(=O)c3cccc(OC)c3)ccc21 | active: 11.2 µM |
| O=C1c2ccccc2S(=O)(=O)c2cc(C(=O)N3CCN(c4c(Cl)cncc4Cl)CC3)ccc21 | inconclusive [inhibitor, single point] |
| CCCS(=O)(=O)c1nc(S(=O)(=O)c2ccc(C)cc2)c(N2CCCC(C)C2)s1 (centres undefined) | inconclusive [inhibitor, single point] |
| Cc1ccc(NC(=O)C2=COCCO2)cc1S(=O)(=O)N1CCOCC1 | inactive |
| COc1ccc(N(CC(=O)NC2CCCCC2)C(=O)CNC(=O)c2cccs2)cc1OC | inactive |
| CC1CC(C)CN(S(=O)(=O)c2ccc(C(=O)Nc3nnc(C4CC4)o3)cc2)C1 (centres undefined) | inconclusive [inhibitor, single point] |
| CCC(=O)Nc1c(C)nn(-c2ccc(C)c(C)c2)c1C | inactive |
| CN(Cc1ccc(Cl)cc1Cl)C(=O)c1cccc(S(=O)(=O)N2CCN(c3ccccc3)CC2)c1 | active: 12.6 µM |
| COc1ccc(N(C(=O)c2snc(C(N)=O)c2N)C(C(=O)NC2CCCC2)c2ccc(C)o2)c(OC)c1 (centres undefined) | inconclusive [inhibitor, single point] |
| Cc1ccc(CN2CC(=O)N3[C@H]4c5cc(Cl)ccc5OC[C@@H]4[C@H](c4ccccc4)[C@]3(C)C2=O)cc1 | inconclusive [inhibitor, partial curve, poor fit] |
| Cc1ccccc1-c1nc(CN2CCC(C(=O)N3CCC(C(N)=O)CC3)CC2)c(C)o1 | inactive |
| CC(=O)C1=C(C)NC(SCC(=O)c2ccc(F)cc2)=C(C#N)C1CC(C)C (centres undefined) | inconclusive [inhibitor, single point] |
| Cc1nn(-c2ccccc2)c(C)c1/C=N/NC(=O)c1cccs1 | inconclusive [inhibitor, single point] |
| CCCCCCN1C2=NCCN2c2ccccc21 | inconclusive [inhibitor, single point] |
| CCCN1CCN(CCCNC(=O)Cn2nc(-c3ccc(Cl)cc3)ccc2=O)CC1 | inconclusive [inhibitor, full curve] |
| Cc1ccc(NS(=O)(=O)c2ccc(NC(=O)N3CCCCC3)cc2)cc1 | inconclusive [inhibitor, partial curve, poor fit] |
| CC(C)c1ccc(NC(=O)N(CCc2nc3ccccc3[nH]2)C2CCCC2)cc1 | inconclusive [inhibitor, single point] |
| Cn1c(-c2ccc(C=O)s2)nc2c3ccccc3c3ccccc3c21 | inconclusive [inhibitor, single point] |
| CN(Cc1ccccc1)c1ncnc2c1cnn2-c1ccccc1 | inconclusive [inhibitor, single point] |

Source: PubChem BioAssay AID651820 (National Center for Advancing Translational Sciences (NCATS), 2012)
